Laboratory results: PubChem BioAssay AID624417 (National Center for Advancing Translational Sciences (NCATS), 2012)
About 6,400 (1.6%) of roughly 410,000 compounds were called active. The shares of active, inactive and inconclusive entries below differ from those in the screen. Calls come from the whole dose curve; as a rule, active = well fitted inhibition curve with a large enough effect; inconclusive = small, poorly fitted or top-dose-only effect; inactive = no such curve, though single readings can be large or run the other way. No potency is given beside an inconclusive call; the fits are too rough.

Biological target: Glucagon-like peptide 1 receptor (Homo sapiens) (UniProt P43220)
Sequence of UniProt P43220 (P43220 whole entry, looked up): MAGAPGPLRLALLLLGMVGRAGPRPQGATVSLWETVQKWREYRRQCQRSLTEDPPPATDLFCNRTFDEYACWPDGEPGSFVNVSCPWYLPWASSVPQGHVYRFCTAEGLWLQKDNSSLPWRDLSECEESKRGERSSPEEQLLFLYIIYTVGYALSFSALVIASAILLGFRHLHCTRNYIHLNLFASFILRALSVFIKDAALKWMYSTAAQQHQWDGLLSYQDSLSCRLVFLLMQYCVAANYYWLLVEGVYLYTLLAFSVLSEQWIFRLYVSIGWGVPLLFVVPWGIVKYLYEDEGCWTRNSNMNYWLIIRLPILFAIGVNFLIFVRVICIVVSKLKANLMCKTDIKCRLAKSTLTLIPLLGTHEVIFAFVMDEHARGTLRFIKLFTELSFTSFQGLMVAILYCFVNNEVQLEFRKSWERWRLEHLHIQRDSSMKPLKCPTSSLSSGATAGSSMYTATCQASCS
Assay: qHTS of GLP-1 Receptor Inverse Agonists (Inhibition Mode); note: nearly all actives have a fitted effect of over 55% in size
Conditions: HEK293 GLP-1R CRE-luciferase, luminescence, 24 h, GLP-1R form is constitutively active; activity change, negative = inhibition: at 38.3 µM (top of the series) unless noted
Outline: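 Constitutively active GLP-1R drives a cAMP-responsive luciferase in stably transfected HEK293 cells; test compounds are added after overnight (12 h) attachment and left 24 hr, and signal loss in luminescence marks inhibition.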
% is set by controls: 0 for no effect and ±100 for the full control effect; potency is the fitted concentration of half-maximal effect; tags give direction and shape of the fitted curve.

Structure (SMILES) | Potency | activity change, negative = inhibition
CCC1CN(C(=O)N2CCC(C(=O)NCc3cccc(OC)c3OC)CC2)c2cc(C)ccc2O1 (stereo unspecified) | inconclusive [inhibitor, partial curve, poor fit] | –
CCC1=Nc2cc(C(=O)NC3CCC(C)CC3)ccc2Sc2ccc(C)cc21 (stereo unspecified) | inconclusive [inhibitor, full curve, poor fit] | –
CC1(C(=O)NCc2ccccc2Br)CCN1Cc1csc2ccccc12 (stereo unspecified) | inconclusive [inhibitor, single point] | –
CC(=O)/C(=N\Nc1ccccc1)Sc1nnc(-c2ccccc2)n1-c1ccccc1 | inactive | –
O=C(Cn1ccc2cc(S(=O)(=O)N3CCCCC3)ccc21)NCc1ccccc1F | inconclusive [inhibitor, single point] | –
Cc1ccc(C(=O)N/C(=C\c2ccc(-c3ccccc3[N+](=O)[O-])o2)C(=O)NCCCN(C)C)cc1 | inconclusive [inhibitor, partial curve, poor fit] | –
O=C(Nc1ccc(F)cc1C(F)(F)F)C1CCN(c2ncccn2)CC1 | inactive | –
CCc1nc2ccccc2c(C(=O)Nc2cc(C)ccc2C)c1C | inconclusive [inhibitor, single point] | –
Cc1cccc(N2C(N)=NC(N)=NC23CCCCC3)c1 | inconclusive [inhibitor, single point] | –
O=C(CC1Sc2ccccc2NC1=O)OCC(=O)N1CCc2ccccc21 (stereo unspecified) | inconclusive [inhibitor, single point] | –
O=C(c1ccco1)N1CCN(CC(O)Cn2c3ccccc3c3ccccc32)CC1 (stereo unspecified) | inconclusive [inhibitor, partial curve, poor fit] | –
Cc1cccc(NC(=O)c2c(C)cc(C)nc2SCC(=O)c2ccccc2)c1 | inconclusive [inhibitor, single point] | –
Cc1c(NC(=O)C(C)OC(=O)c2cc(-c3cccc4ccccc34)nc3ccccc23)c(=O)n(-c2ccccc2)n1C (stereo unspecified) | inconclusive [inhibitor, single point] | –
Cc1cc(NC(=O)CCN2CCN(Cc3ccccc3)CC2)ccc1Br | – | inconclusive: -77.2% [inhibitor]
CC(C)=C(C)c1cc2nc(NCCCN(C)C)n(C)c(=O)c2s1 | inconclusive [inhibitor, partial curve, poor fit] | –
CC(=O)N(c1ccccc1)C1CC(C)N(C(=O)c2ccccc2)c2ccccc21 (stereo unspecified) | inactive | –
COc1ccc(-c2c(NC(=O)C(C)C)n(C)c3ccccc3c2=O)cc1 | inactive | –
CCc1nc2ccc(C(=O)N(C)CCCN(C)C)cn2c1N(C)Cc1cc2ccccc2s1 | inconclusive [inhibitor, single point] | –
CCOC(=O)Cn1c(=S)[nH]c2c(oc3ccc(Cl)cc32)c1=O | inactive | –
Fc1ccc(CNC(=S)NCc2cccc(Cl)c2)cc1 | inconclusive [inhibitor, partial curve, poor fit] | –
O=C1c2ccccc2C(O)(c2ccccc2)N1CCc1ccccc1 (stereo unspecified) | inconclusive [inhibitor, partial curve, poor fit] | –

Structure (SMILES) | Potency | activity change, negative = inhibition
CCCOc1ccc(C(=O)OCCN(CC)CC)cc1N | inconclusive [inhibitor, single point] | –
CC(C)(C)c1ccc(-c2ncccc2O)cc1 | inconclusive [inhibitor, partial curve, poor fit] | –
COc1ccc(CCNC(=O)c2ccc3c(c2)CCN3S(=O)(=O)c2ccc(C)cc2)cc1 | inconclusive [inhibitor, single point] | –
COc1ccc(-c2cc(C(=O)NCCc3ccccc3)c3c(-c4ccccc4)[nH]nc3n2)cc1OC | inactive | –
Clc1ccccc1CN1CCC(Cc2ccccc2)CC1 | inconclusive [inhibitor, partial curve, poor fit] | –
CCOc1ccc(NC(=O)C(=O)c2cc(C)n(-c3cc(C)cc(C)c3)c2C)cc1 | inconclusive [inhibitor, partial curve, poor fit] | –
O=c1c(-c2cccs2)nc2ccccc2n1C(CCc1ccccc1)c1nc2ccccc2[nH]1 (stereo unspecified) | inconclusive [inhibitor, full curve] | –
Cc1ccc(NC(=O)C2CCCN(S(=O)(=O)c3ccc4c(c3)oc(=O)n4C)C2)cc1Cl (stereo unspecified) | inactive | –
Cc1ccc(Nc2nc(CSc3nnc(-c4ccncc4)n3C)cs2)cc1 | inconclusive [inhibitor, single point] | –
Cc1ccc(S(=O)(=O)c2nc(S(=O)(=O)c3ccc(C)cc3)c(N3CCN(CCO)CC3)s2)cc1 | inconclusive [inhibitor, partial curve, poor fit] | –
C=CCN1C(=O)C(O)(CC(=O)c2ccc(OC)cc2OC)c2cc(Br)ccc21 (stereo unspecified) | inconclusive [inhibitor, partial curve, poor fit] | –
Cc1cc(N2CCOCC2)nc(N2CCOCC2)c1C#N | inactive | –
CCCCCOc1ccc(Cn2c(=O)oc3ccccc32)cc1 | inactive | –
Cc1ccc(S(=O)(=O)Nc2cccc(C(=O)NCC(c3ccccc3)N(C)C)c2)cc1F (stereo unspecified) | inconclusive [inhibitor, partial curve, poor fit] | –
COc1ccc(NC(=O)C2C(=O)N(C)C3(C)CC2c2ccccc2O3)cc1 (stereo unspecified) | inconclusive [inhibitor, partial curve, poor fit] | –
Cc1cccc(NC(=O)c2ccc3nc(C(C)C)oc3c2)c1C | inconclusive [inhibitor, full curve, poor fit] | –
COc1cccc(/C=C2\SC(=S)N(CCC(=O)N3CCCCC3CCO)C2=O)c1 (stereo unspecified) | inconclusive [inhibitor, partial curve, poor fit] | –
Cc1ccc(C(=O)NCC(=O)OCC(=O)N(CC(C)C)c2c(N)n(Cc3ccccc3)c(=O)[nH]c2=O)cc1C | inactive | –
O=C(c1cnn(-c2cccc(F)c2)c1)c1ccccc1O | inconclusive [inhibitor, partial curve] | –
Cc1ccc(/C=C2\SC(=S)N(C3CCS(=O)(=O)C3)C2=O)o1 (stereo unspecified) | inconclusive [inhibitor, partial curve, poor fit] | –
O=C(Nc1ccccc1)C(=O)Nc1ccc2c(c1)N(C(=O)C1CC1)CCC2 | inconclusive [inhibitor, single point] | –

Structure (SMILES) | Potency | activity change, negative = inhibition
Cc1cccc(/C=N/NC(=O)Cc2ccc(Cl)cc2)c1O | inconclusive [inhibitor, full curve, poor fit] | –
COc1ccccc1N1CCN(CC(O)COc2ccc(S(=O)(=O)N3CCOCC3)cc2)CC1 (stereo unspecified) | inactive | –
Cc1cccc(C)c1NC(=S)N(Cc1ccccc1)Cc1cccs1 | inconclusive [inhibitor, partial curve, poor fit] | –
C[C@]12C(=O)N(c3cccc(Cl)c3)C(=O)N1[C@H]1c3ccccc3OC[C@@H]1[C@H]2c1ccccc1 | inconclusive [inhibitor, single point] | –
CC(C)CC1(C)NC(=O)N(CC(=O)Nc2cccc(S(=O)(=O)N(C)c3ccccc3)c2)C1=O (stereo unspecified) | inconclusive [inhibitor, single point] | –
Cc1ccc(-c2nc(C#N)c(N3CCC(C)CC3)o2)cc1 | inconclusive [inhibitor, single point] | –
COc1ccc(/C=C/C(=O)NNC(=O)c2cc(C)oc2C)cc1 | inconclusive [inhibitor, single point] | –
OCCC1CN(Cc2c(O)ccc3ccccc23)CCN1CCc1ccccc1 (stereo unspecified) | inconclusive [inhibitor, partial curve, poor fit] | –
C/C=C\C(=O)Nc1cccc(C2=NOC3(C2)C[C@@H](C(N)=O)N(C(=O)CC(c2ccccc2)c2ccccc2)C3)c1 (stereo partly specified) | inconclusive [inhibitor, single point] | –
Cc1cc(NCCN2CCOCC2)n2nc(C)c(-c3ccc(Cl)cc3)c2n1 | inconclusive [inhibitor, full curve] | –
CC1(Cc2ccc(F)cc2)C(=O)Nc2c(Cl)ccc(Cl)c21 (stereo unspecified) | inconclusive [inhibitor, single point] | –
O=S(=O)(Nc1nnc(-c2ccccc2)s1)c1ccc(Cl)cc1 | inconclusive [inhibitor, single point] | –
CCN1CCN(C(=O)c2cc3c(-c4ccc(Cl)cc4)nn(C)c3s2)CC1 | inconclusive [inhibitor, partial curve, poor fit] | –
COc1ccc(Nc2nnc(-c3ccc(O)cc3)c3ccccc23)cc1 | inconclusive [inhibitor, single point] | –
CCCn1c(C(C)Nc2nc(-c3cccc(Br)c3)cs2)nc2ccccc21 (stereo unspecified) | inconclusive [inhibitor, single point] | –
Cc1ccc(NC(=O)CN2CCN(S(=O)(=O)c3ccc(C(C)C)cc3)CC2)cc1F | inconclusive [inhibitor, single point] | –
CCSc1nc(NCCN(C)C)c2c3c(sc2n1)COC(C)(CC)C3 (stereo unspecified) | inconclusive [inhibitor, single point] | –
COc1cc(/C=C/C(=O)OC(C)C(=O)Nc2ccc(Cl)cn2)ccc1OC(F)F (stereo unspecified) | inconclusive [inhibitor, single point] | –
CCN1CCN(Cc2ccc(NC(=O)c3cc(NC(=O)c4cc(-c5ccc(OC)cc5)n[nH]4)cc(OC)c3)cc2C(F)(F)F)CC1 | inconclusive [inhibitor, partial curve, poor fit] | –
